# In all, about 33,000 sequences were measured (“E-score (-0.5 to 0.5)”: median about -0.012, highest 2% from about 0.29 on). The list shows a part of the results.
# Target: T1, Ybr033w (UniProt P38073)
# T1 sequence: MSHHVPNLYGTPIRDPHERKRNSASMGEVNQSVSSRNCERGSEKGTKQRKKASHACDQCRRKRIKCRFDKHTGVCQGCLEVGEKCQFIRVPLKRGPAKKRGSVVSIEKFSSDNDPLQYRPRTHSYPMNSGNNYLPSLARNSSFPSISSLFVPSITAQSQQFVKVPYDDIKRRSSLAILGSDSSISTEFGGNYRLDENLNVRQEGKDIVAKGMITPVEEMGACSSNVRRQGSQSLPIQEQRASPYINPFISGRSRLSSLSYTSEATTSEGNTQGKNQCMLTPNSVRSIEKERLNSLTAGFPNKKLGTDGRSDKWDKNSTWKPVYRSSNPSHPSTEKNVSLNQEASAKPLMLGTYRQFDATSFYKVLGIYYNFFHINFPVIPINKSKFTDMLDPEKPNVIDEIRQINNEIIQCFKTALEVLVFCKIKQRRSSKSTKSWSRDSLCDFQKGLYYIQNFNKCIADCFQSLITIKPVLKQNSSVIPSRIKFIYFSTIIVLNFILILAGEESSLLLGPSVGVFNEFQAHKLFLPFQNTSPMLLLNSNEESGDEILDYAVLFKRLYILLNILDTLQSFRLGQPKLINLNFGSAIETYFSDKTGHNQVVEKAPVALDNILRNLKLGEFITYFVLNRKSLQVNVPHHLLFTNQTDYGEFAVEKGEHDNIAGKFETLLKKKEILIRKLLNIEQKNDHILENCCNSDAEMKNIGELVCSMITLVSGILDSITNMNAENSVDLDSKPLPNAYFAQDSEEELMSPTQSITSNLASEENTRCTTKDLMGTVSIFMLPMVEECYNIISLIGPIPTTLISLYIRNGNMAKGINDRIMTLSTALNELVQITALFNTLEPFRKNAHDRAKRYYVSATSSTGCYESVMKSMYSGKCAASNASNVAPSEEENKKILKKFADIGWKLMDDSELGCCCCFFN
# Experiment: PBM E-score (8-mer binding enrichment) (E-score (-0.5 to 0.5)); higher = stronger / more preferred TF binding; most listed sequences are background and not binding sites
# Settings: protein concentration: 200 nM; construct: GST-full length
# Procedure: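 Universal 'all 10-mer' protein binding microarrays (Agilent AMADID 015681) probed with GST-tagged S. cerevisiae TFs (full-length or DBD) made by in vitro transcription/translation (PURExpress), about 100-200 nM. Bound TF was detected with fluorescent anti-GST. Each ungapped 8-mer (which stands for itself and its reverse complement) is scored by the PBM enrichment score (E-score), a modified Wilcoxon-Mann-Whitney statistic from -0.5 to +0.5, computed with the Universal PBM Analysis Suite. Scale: above 0.35 generally sequence-specific binding.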
row,Sequence,PBM E-score
1,CGGGTTTA,0.163
2,AGCGGGGA,-0.201
3,ACACGTAC,-0.0636
4,AGAGGCGA,-0.266
5,CAACGGTC,-0.0551
6,AGAGGCAA,-0.0963
7,ACCTTCTA,-0.0626
8,GCCCCATA,-0.0981
9,GGAGGCCA,-0.221
10,GAGCAATC,0.115
11,AGCTTCCA,0.2
12,CTTAGAGC,-0.052
13,ACAGAGGT,-0.0564
14,AGCGATAA,-0.0195
15,GGGTGGTA,-0.103
16,CGTTGAAC,0.0781
17,CGTAACAC,-0.0282
18,ACAGGCCT,-0.123
19,CTCTGTAA,0.0142
20,GCTTCCGA,0.14
21,ATATGGTG,0.0659
22,CCAACTTC,0.0297
23,GACCAGTA,-0.174
24,GTGAATTA,0.118
25,ACCCCCAG,-0.241

row,Sequence,PBM E-score
1,ACAATTTC,0.166
2,CCATCCAA,0.0511
3,CATTCGGA,0.198
4,CGGGGTAA,0.0024
5,ATCTGCCG,0.0332
6,GACCACGC,-0.223
7,CCACACGC,-0.0385
8,TCTCGCCA,-0.00247
9,CAAGTAAA,0.113
10,CGTTGTTC,0.119
11,CGTGCTAC,-0.223
12,ACCTGGTC,-0.0936
13,CTGGTAGA,0.135
14,CAAACGAC,0.146
15,AGGGCGAA,0.00984
16,AAAGCGTG,-0.124
17,CCTGAGGC,-0.259
18,CCAGCCCA,-0.298
19,CCGAACGA,0.0558
20,GGGAAACA,0.0327
21,AATGTATG,0.15
22,ATTTTTTA,0.193
23,AGCCCGCG,-0.318
24,TGTCGGAA,0.0696
25,GATCGCCA,-0.154

row,Sequence,PBM E-score
1,GACCGGAA,0.036
2,CATCCATG,0.0683
3,CGGAATAC,0.186
4,CATCCTAG,-0.0462
5,AGGAAGAG,-0.0292
6,ATCGTACA,0.188
7,AGGTCTCA,-0.102
8,ACACTCTA,0.121
9,TACTAAAA,0.243
10,TCCTCACA,-0.105
11,ACGGAGAG,-0.17
12,ACCCGTCT,-0.0592
13,AAATGTCA,0.00238
14,GAGAGTGA,0.0923
15,GACACCTC,-0.115
16,CACTCTTA,0.0582
17,CTTGAAAC,0.181
18,ACTCCAGA,0.0397
19,GCCCGGGC,-0.27
20,GCGTGTCA,0.0699
21,ACTAGTAG,0.113
22,AGAACGAT,0.14
23,CTTCGACA,-0.0144
24,ATGCGCAC,0.0412
25,AAGAAGGA,-0.0821

row,Sequence,PBM E-score
1,TGAGTGCA,-0.077
2,GAGTCAAC,-0.105
3,AAGGATAT,0.205
4,CCCGCAAG,-0.245
5,ACACCGCA,0.0328
6,AATTTTTA,0.256
7,AACACCCG,0.0827
8,AATTAGGA,0.126
9,ACAGAGGC,-0.3
10,ATAAGTAC,0.17
11,CCAAGGCG,-0.234
12,ATTAAGGG,-0.0754
13,CGTTTTTC,0.187
14,CCGCAGAC,-0.238
15,GACACCGC,-0.118
16,ACTAAATC,0.278
17,CACACGGC,-0.209
18,AAAGATGA,0.167
19,CAGTATAG,0.168
20,GGAAGTGA,-0.0675
21,AGATTGAG,0.242
22,AAGATGAC,0.0438
23,CAATCACC,0.0353
24,CAAAACGC,-0.142
25,CGCGCGCC,0.0396

row,Sequence,PBM E-score
1,AACGGGGA,-0.0326
2,GCCAAGGA,-0.182
3,CGCTTTAC,0.018
4,CGTGTTTA,0.0527
5,CGCGGACA,-0.0655
6,GCCTGCGA,-0.192
7,AATGAACT,0.232
8,TCATCCAA,0.16
9,GCAATTGA,0.0953
10,CTGTTAGC,0.0123
11,GCGGGAGA,-0.129
12,ACCTACAC,-0.177
13,GTGATGAA,0.0226
14,GACCGGCA,-0.227
15,TCCCAAGA,0.0369
16,GTAATGCA,-0.128
17,CACATGAC,-0.13
18,AATAATGT,0.183
19,CGAACGGA,-0.0681
20,ACAAACAT,0.184
21,AAAAGCTG,-0.0352
22,GTAACGCA,0.00793
23,CCAGAGTC,-0.0375
24,CCAGCTAA,-0.215
25,ATGTCTTA,0.055

row,Sequence,PBM E-score
1,ACACGGGT,-0.122
2,ATTCAGTA,0.13
3,GAGTACAA,0.162
4,ATAGTGAA,0.129
5,CGGACAAC,-0.0529
6,CCCGAGCA,-0.296
7,CCAAGTGC,-0.0762
8,GACCCGGA,-0.212
9,CATACCCG,-0.165
10,GACATGGC,-0.267
11,ACACGCCC,-0.203
12,GGAATCAA,0.145
13,ACGCCAAC,-0.0861
14,ACCTTGCC,-0.208
15,TGCTGGAA,0.115
16,GGCCGAGA,0.0662
17,GTTACTGA,0.103
18,CAACACAG,-0.0762
19,GGCGTTGA,-0.139
20,AACGCGTA,0.0134
21,AGAACACG,0.142
22,GGCACTAC,-0.252
23,CGATTTAG,0.263
24,GTTCGTTA,0.234
25,GCGCTAAA,-0.00863

row,Sequence,PBM E-score
1,AAGTCGGT,0.117
2,CGGTTGAG,0.108
3,GGTACTGA,-0.167
4,ATGTGCGG,-0.125
5,ACTATTCC,0.228
6,GAGTCGCC,-0.207
7,CGAGTAAA,0.196
8,GGGTAACC,-0.117
9,AAATATTC,0.37
10,CCCTTGGC,-0.27
11,GTCTGGGA,-0.18
12,AAATAGAA,0.193
13,GATATTAC,0.31
14,AGCGGTGC,-0.179
15,CGCGTTTC,-0.179
16,CTAGGCTA,-0.164
17,AGCGGCAC,-0.17
18,AATCGTAT,0.203
19,CATGCAGA,-0.12
20,AGGTGTAG,-0.144
21,AACCACTC,0.0186
22,AGTAACCA,0.0148
23,AAGCATCT,0.00442
24,CGAGCGAC,-0.0906
25,CCCTATCA,-0.0263

row,Sequence,PBM E-score
1,ACCTATGA,-0.0827
2,ACAATTGT,0.223
3,AGAGCTAT,-0.174
4,ACCGGAAG,0.222
5,GTCTACAC,0.0244
6,CCTACTGC,-0.0675
7,CATCCCTA,-0.0662
8,AACTAACA,0.118
9,GTCAGTAA,-0.00383
10,AATATCCG,0.284
11,ACGAGAAT,0.0681
12,CAGTATTA,0.168
13,CTATCCCC,-0.291
14,CGCACTAG,0.0213
15,AATTGACC,0.0241
16,AGGTTCCC,-0.29
17,CAGGACGA,-0.132
18,CGCTCTAG,-0.296
19,AAACTGCA,0.146
20,CAACCTAC,0.0113
21,AAGTAGGG,0.144
22,AGGGCCGG,-0.208
23,AACTGGGC,-0.144
24,AACTTTTC,0.274
25,GGGACGCA,-0.233

row,Sequence,PBM E-score
1,AACATCCC,0.0746
2,CCCGTGGC,-0.39
3,AATCCAAA,0.201
4,GCCACCTA,-0.167
5,CATGGGCA,-0.108
6,GTGCAGCA,-0.0842
7,AATTCACG,-0.0727
8,GCTGTTCA,0.0549
9,GAATACAC,0.00479
10,ACAGAATA,0.224
11,TAGGACAA,0.105
12,GCAAGTGA,-0.0168
13,AGGTTACA,0.0611
14,ATTAGCCA,0.0882
15,GTCTATCA,0.0657
16,CCGGGGAC,-0.262
17,ACATGATA,0.32
18,ACAGGAAA,0.278
19,ACCTCGAA,0.0549
